From the supplement of paper PMC3334620
In all, about 33,000 sequences were measured (“E-score (-0.5 to 0.5)”: median about -0.017, highest 2% from about 0.3 on). The list shows a part of the results.

Molecular target: T1, Sut1 (UniProt P53032)
T1 sequence: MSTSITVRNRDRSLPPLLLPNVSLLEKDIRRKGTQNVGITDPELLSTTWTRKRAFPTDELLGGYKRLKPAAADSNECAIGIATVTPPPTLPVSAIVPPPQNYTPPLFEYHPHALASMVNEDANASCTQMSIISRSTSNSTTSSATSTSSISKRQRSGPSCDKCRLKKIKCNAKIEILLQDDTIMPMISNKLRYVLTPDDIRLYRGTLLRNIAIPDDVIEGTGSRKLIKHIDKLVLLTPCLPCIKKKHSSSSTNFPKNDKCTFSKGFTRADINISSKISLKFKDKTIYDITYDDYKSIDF
Assay: PBM E-score (8-mer binding enrichment) (E-score (-0.5 to 0.5)); higher = stronger / more preferred TF binding; most listed sequences are background and not binding sites
Conditions: protein concentration: 200 nM; construct: GST-full length
Summary of the method: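 For each ungapped eight-base word taken together with its reverse complement, the Universal PBM Analysis Suite assigned an E-score. Binding data came from GST-tagged yeast transcription factors, applied at about 100-200 nM, on universal all-10-mer Agilent arrays made double-stranded by primer extension. Fluorescent anti-GST marked bound protein, and scans were normalised with masliner.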

| Sequence | PBM E-score |
| --- | --- |
| CGCATGTC | -0.138 |
| GATACATA | 0.101 |
| AATGGGAT | 0.104 |
| CACGAGAG | -0.256 |
| CTAATCTC | 0.141 |
| TCAGCTAA | -0.00754 |
| GACCTGAA | 0.124 |
| CGCGCGAG | -0.111 |
| AGAACAAA | 0.226 |
| CAGCTAGC | -0.234 |
| AAAGTGGG | 0.0173 |
| AATTATAT | 0.212 |
| AATGGACT | 0.0013 |
| CTGACTGA | -0.167 |
| CGGTTTAC | 0.00822 |
| TTTAGAAA | 0.291 |
| CGATCTCC | 0.145 |
| GCTCTATA | 0.133 |
| AGTCCTGA | -0.109 |
| ACTGCACC | -0.137 |
| CACGCAAG | -0.131 |
| GTTAGTCA | -0.0461 |
| CGGGGACA | -0.0417 |
| GTTTGCCA | -0.0664 |
| AAACCCAT | 0.165 |

| Sequence | PBM E-score |
| --- | --- |
| ACGAGACG | -0.147 |
| AACCGTGT | 0.0158 |
| AGTGCCGG | 0.0642 |
| ATGATGGG | -0.276 |
| GCGTCAAC | 0.00012 |
| ATAGCAAG | 0.125 |
| AGCTTGAT | 0.0197 |
| CACTAAGC | -0.105 |
| ATGCGCTA | -0.0278 |
| CCGCGTAA | -0.0488 |
| CTTAAGAC | -0.11 |
| CATTGAGC | -0.0414 |
| TAGTCAAA | 0.168 |
| TTACGGAA | 0.198 |
| CGAAGAGC | 0.141 |
| ACGGTCCT | -0.258 |
| CGATCTTA | -0.0415 |
| CAACTCAA | 0.18 |
| CGATGCGC | -0.106 |
| CGTAAAAG | 0.1 |
| AACGATAT | 0.233 |
| CTGAGGCA | -0.194 |
| AAAATCGA | -0.135 |
| GCGTCTGA | -0.138 |
| AAAATCCG | 0.246 |

| Sequence | PBM E-score |
| --- | --- |
| ATACTATA | 0.238 |
| CGGATTCC | 0.096 |
| AGGTAACC | -0.158 |
| ACACCAAA | 0.0955 |
| GCACGTGC | -0.0247 |
| GCTGGAAC | -0.227 |
| AAAACAAA | 0.312 |
| CGTCACGC | -0.112 |
| CCCGATCC | -0.201 |
| GCATTTAC | 0.0466 |
| AATAGTTG | 0.159 |
| GAGGGCGA | -0.391 |
| CTGATTCC | -0.0283 |
| CAGAGGTC | -0.314 |
| CACGCCAC | -0.174 |
| AAGCACGA | -0.0741 |
| GGGAAAAA | 0.212 |
| AGCCCACC | -0.177 |
| ACATTGAT | 0.108 |
| AGTTGCCC | -0.0388 |
| AGGAAGTC | -0.0456 |
| AAGGCAAG | -3e-05 |
| AGTAGATA | 0.23 |
| GCCCGACC | -0.185 |
| AGTAATGA | 0.0306 |

| Sequence | PBM E-score |
| --- | --- |
| CGCGCCTC | 0.0917 |
| AAGTCAGT | 0.149 |
| CGAGGAGA | -0.198 |
| ATCTGTGC | -0.23 |
| ACAGCGCG | -0.136 |
| GATCATGC | -0.142 |
| GTTCCAAA | 0.1 |
| ACCTCGAC | -0.163 |
| CTAGGGTA | -0.205 |
| ATTCTATC | 0.103 |
| AGGACACC | -0.253 |
| AATAGCAG | 0.0845 |
| AATCGGTG | 0.0417 |
| ACCGCTGA | -0.0563 |
| GGCATATA | 0.0338 |
| AGGTGGGA | -0.201 |
| AATAAACA | 0.216 |
| ACGTTGTG | -0.0245 |
| CGGCGACA | -0.166 |
| AATGGGAG | -0.0748 |
| GACTCCGA | 0.486 |
| ACGTCTCC | -0.0319 |
| GAGAAATC | 0.16 |
| CCAAACGC | -0.202 |
| TGGGTAAA | 0.0215 |

| Sequence | PBM E-score |
| --- | --- |
| TAAAAACA | 0.188 |
| ACCCGATG | -0.165 |
| GCACAGCC | -0.202 |
| ATCTTTGA | 0.131 |
| GCCGACAA | 0.064 |
| AAGCCCGT | -0.0772 |
| AAGACTAG | -0.15 |
| GTCTTGAA | 0.122 |
| CTTCAGCA | -0.109 |
| AAGGGAGC | -0.218 |
| ACCTGAAA | 0.0304 |
| ACTTCCGG | 0.233 |
| CAGCGGTC | -0.185 |
| GATAAAGC | 0.016 |
| AAGCATGT | 0.0702 |
| CCCAGTCA | -0.163 |
| CCGGATCC | 0.141 |
| GGGTGTAC | -0.0844 |
| ACCTGACA | -0.123 |
| ACTATGTG | 0.0329 |
| ATTACTGG | -0.0106 |
| GTAGTCGA | 0.0978 |
| AGTACATG | 0.0629 |
| ACAGTCTC | -0.112 |
| CGCGAAGC | -0.0203 |

| Sequence | PBM E-score |
| --- | --- |
| CGATCACG | 0.119 |
| CGGCCACG | -0.164 |
| AGCGCAGG | -0.158 |
| ACTTAGAG | 0.0503 |
| CAGCAGGC | 0.00282 |
| CGGACTAC | 0.464 |
| GCACCTTA | -0.00495 |
| CAGGATTC | -0.114 |
| GGAATTGA | 0.193 |
| ACTAATGA | 0.171 |
| CACTCGTA | -0.091 |
| GGGTTACA | -0.00487 |
| ACGTATTA | 0.25 |
| ATTGAAAC | 0.184 |
| TCCGCTCA | -0.0284 |
| AGCCGGTG | 0.00841 |
| CTCGCAGA | -0.2 |
| ATCCTACC | -0.136 |
| ACGTCCAT | -0.113 |
| GAGGGTAC | -0.296 |
| AGGTGATC | -0.00559 |
| CGGCAATA | 0.0568 |
| TAGAACTA | 0.153 |
| AGCCAGGC | -0.225 |
| CGAATTCA | 0.15 |

| Sequence | PBM E-score |
| --- | --- |
| AAATGGCG | 0.0515 |
| CTGGATCA | -0.0551 |
| CCTACGTA | -0.0517 |
| GGAGTTCA | 0.339 |
| AGCAATGA | 0.0807 |
| TGATCACA | 0.0721 |
| AGCAACGG | 0.144 |
| ATGAGGCG | -0.246 |
| ATCGGTTG | 0.0119 |
| CTGGGGGC | -0.388 |
| ACGATAGT | 0.143 |
| AACGAACT | -0.0484 |
| CCAAACTA | 0.0416 |
| CGGAAAGA | 0.312 |
| GAGCTGCC | 0.0317 |
| TCGTCGCA | -0.0851 |
| CCATAACC | -0.199 |
| GACACTGC | -0.162 |
| CTGGTGTC | -0.0948 |
| ATTTTTAG | 0.0681 |
| ACTCACGA | -0.144 |
| CACAATCC | 0.188 |
| AAGGAGCA | 0.0291 |
| CTCGACAG | -0.251 |
| CTAGGGGA | -0.131 |

| Sequence | PBM E-score |
| --- | --- |
| CAGTCACA | -0.17 |
| AATCTCAT | 0.161 |
| AGCCAAAT | 0.14 |
| AAATGTCG | -0.126 |
| CCGTCTGC | -0.139 |
| ATGCGGTA | 0.133 |
| ACAACGAG | 0.00573 |
| TATTACAA | 0.239 |
| CCAAGACG | -0.0858 |
| ACTGTCCA | -0.166 |
| CTTGTCGA | -0.195 |
| AACCTATA | 0.232 |
| AGCTGGTC | -0.152 |
| CGTCTAAG | -0.0493 |
| ATCGACAG | -0.106 |
| GTTGTCTA | 0.22 |
| CACACAGA | -0.0363 |
| ACCTGGAT | -0.235 |
| TATCGATA | -0.0843 |
| AGCCTAAG | -0.252 |
| ACGCGTAT | -0.0385 |
| GGAGTAGA | 0.318 |
| ACCTATCT | 0.0362 |
| AGCCCGAC | -0.123 |
| ACTGTTTC | -0.0369 |

| Sequence | PBM E-score |
| --- | --- |
| GATCGAGC | 0.0593 |
| GACCCCTA | -0.323 |
| CTTGCACA | -0.018 |
| AATGAGGG | -0.18 |
| GACAAAGC | -0.0456 |
| CCCACGTC | -0.112 |
| CGCGGCAG | -0.0689 |
| GCCAGTCC | -0.031 |
| AGAGCCAT | -0.0848 |
| AGACCCCG | 0.18 |
| CTGCACTC | -0.108 |
| CAGTTCCG | 0.0272 |
| ATAAGCGC | -0.133 |
| ATGAGTCC | 0.171 |
| AAATTTGG | -0.0915 |
| CTAGTGGC | -0.186 |
| AACAGGTA | 0.0211 |
| AATAGGCC | 0.0314 |
| CGTCGAAC | -0.191 |
| AGACAAAC | 0.0938 |
| CTTTAATA | 0.282 |
| CTACCGAG | -0.115 |
